Paper PMC4336329 (PLoS ONE, 2015)
The whole screen tested about 310,000 compounds, of which about 14,000 (4.5%) showed an effect of 50% or more. Effects have a minus sign here. The list shows a part of the results.

Molecular target: human ether-à-go-go-related gene (hERG) potassium channel (human, UniProt Q12809)
Assay: primary screen, population patch clamp on CHO cells stably expressing hERG
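Also: peak tail current of the secondary pulse compared with the same well before compound.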

Chain of human ether-à-go-go-related gene (hERG) potassium channel (Q12809 whole entry, looked up): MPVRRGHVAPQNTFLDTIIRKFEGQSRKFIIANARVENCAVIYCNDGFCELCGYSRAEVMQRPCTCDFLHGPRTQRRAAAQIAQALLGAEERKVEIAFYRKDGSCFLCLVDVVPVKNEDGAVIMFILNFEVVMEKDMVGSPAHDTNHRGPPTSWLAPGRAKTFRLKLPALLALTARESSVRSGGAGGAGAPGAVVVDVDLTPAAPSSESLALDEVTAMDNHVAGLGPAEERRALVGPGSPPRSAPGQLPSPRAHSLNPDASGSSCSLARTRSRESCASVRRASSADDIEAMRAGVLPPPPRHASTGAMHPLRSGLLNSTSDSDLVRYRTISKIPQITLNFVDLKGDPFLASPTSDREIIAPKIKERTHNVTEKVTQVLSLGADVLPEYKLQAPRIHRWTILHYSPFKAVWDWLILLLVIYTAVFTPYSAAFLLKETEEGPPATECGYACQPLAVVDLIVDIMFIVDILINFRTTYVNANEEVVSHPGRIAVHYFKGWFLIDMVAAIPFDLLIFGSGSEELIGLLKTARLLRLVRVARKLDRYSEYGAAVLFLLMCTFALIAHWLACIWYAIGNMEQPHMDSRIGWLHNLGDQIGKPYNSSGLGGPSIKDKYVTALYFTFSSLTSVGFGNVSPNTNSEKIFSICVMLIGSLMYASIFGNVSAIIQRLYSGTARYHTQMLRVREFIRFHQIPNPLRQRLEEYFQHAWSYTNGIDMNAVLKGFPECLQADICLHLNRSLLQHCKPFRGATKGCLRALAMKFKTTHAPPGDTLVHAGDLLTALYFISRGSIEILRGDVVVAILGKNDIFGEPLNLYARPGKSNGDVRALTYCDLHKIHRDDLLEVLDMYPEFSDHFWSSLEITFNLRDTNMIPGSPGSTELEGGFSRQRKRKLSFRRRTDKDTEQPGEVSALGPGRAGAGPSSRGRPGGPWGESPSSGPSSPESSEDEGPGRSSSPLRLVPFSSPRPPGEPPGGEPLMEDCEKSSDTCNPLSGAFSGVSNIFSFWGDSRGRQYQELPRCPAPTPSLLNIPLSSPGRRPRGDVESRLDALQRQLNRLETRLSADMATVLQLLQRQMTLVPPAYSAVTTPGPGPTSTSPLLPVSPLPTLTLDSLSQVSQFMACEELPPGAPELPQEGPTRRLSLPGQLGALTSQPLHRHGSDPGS

SMILES | hERG current change (%, negative = inhibition) at 10uM
CCN(CC(=O)Nc1cccc(OC)c1)CC(=O)Nc1cccc2ccccc12 | -10.2%
COc1cc(NC(=O)c2ccc(C)c([N+](=O)[O-])c2)ccc1NC(=O)c1ccco1 | 15.6%
CCCCN(C(=O)COC(=O)c1nc2nccc(C)n2n1)C1CCS(=O)(=O)C1 (stereo not drawn) | 1.19%
Cc1cc(C)nc(NC(=NCCc2c[nH]c3ccccc23)NC(=O)C(C)(C)C)n1 | -4.06%
CN(Cc1nc2ccccc2n1C)S(C)(=O)=O | -5.28%
CC(=O)SCCC(=O)N1C(C)CCCC1C(=O)O (stereo not drawn) | -2.53%
CN(Cc1c(F)cccc1Cl)S(=O)(=O)c1cccs1 | -19.8%
NC(=O)c1[nH]cnc1N | 5.75%
CC(=O)N1N=C(c2ccc(NS(=O)(=O)c3ccccc3)cc2)CC1c1ccco1 (stereo not drawn) | -12.2%
O=C(COC(=O)c1cnccn1)c1ccc2c(c1)CCCC2 | -0.851%
CC(=O)Nc1ccc(NC(=O)CSc2ccc(-c3ccc4c(c3)OCO4)nn2)cc1 | -8.17%
Cc1ccccc1C(=O)NCC(=O)NNC(=S)NC(=O)c1ccccc1 | 1.49%
CC1(c2nnc(-c3ccc(Cl)cc3)o2)CC(c2c(Cl)cccc2Cl)=NO1 (stereo not drawn) | 1.13%
CCCn1nnnc1NC(=O)c1cc(Br)ccc1OC | -8.29%
O=C(CSc1nnc(NC(=O)c2cccc(Br)c2)s1)NCC1CCCO1 (stereo not drawn) | 12.1%
CCCCS(=O)CC(O)COc1ccc(C(C)(C)C)cc1 (stereo not drawn) | -7.18%
COc1ccc(Oc2cccc(Cl)c2CNC(=O)CC(C)(C)CC(=O)O)cc1 | -35.5%
C=CCn1c(SCc2nc(N)nc(N(C)C)n2)nnc1-c1cccnc1 | 4.04%
COc1ccc(/C=C/C(=O)N(C)Cc2cccs2)cc1S(=O)(=O)N1CCOCC1 | -8.34%
CC(C)C(NS(=O)(=O)/C=C/c1ccccc1)C(=O)NCc1ccc(F)cc1 (stereo not drawn) | 25.3%
O=C1[C@H]2[C@@H](c3ccc(F)cc3)N3C(=O)N(c4ccccc4)C(=O)[C@@]3(Cc3ccccc3)[C@H]2C(=O)N1C1CCCCC1 | -0.585%
Cn1c(=O)c2c(nc(N3CCN(Cc4ccccc4)CC3)n2CCCc2ccccc2)n(C)c1=O | -46%

SMILES | hERG current change (%, negative = inhibition) at 10uM
CSc1ncccc1C(=O)NCCc1ccc(S(N)(=O)=O)cc1 | 13.8%
O=C(Cc1ccc(F)cc1)N/N=C/c1ccncc1 | -8.56%
Cc1cc(C)cc(NC(=O)COc2ccc(C(=S)N3CCOCC3)cc2)c1 | 2.38%
CCCC(=O)C1=C(N(C)c2ccccc2)CC(C)(C)C(C(=O)OC)C1=O (stereo not drawn) | 1.82%
Cn1cc([N+](=O)[O-])c(C(=O)Nc2ccn(Cc3c(F)c(F)cc(F)c3F)n2)n1 | -9.84%
CCc1cc(Cn2nc(-c3ccccc3)cc2C(=O)NCc2ccccc2OC)on1 | -14.6%
CC(=O)Nc1cccc(NC(=O)CS(=O)(=O)c2cn(CC(=O)N3CCCC3)c3ccccc23)c1 | 16.7%
COc1ccc(S(=O)(=O)NCCc2ccco2)cc1OC | 11.2%
O=S(=O)(Nc1ccc(N2CCCCC2)cc1)c1ccccc1F | 3.71%
Cc1cc(Cl)ccc1N(CC(=O)NCCSCc1ccco1)S(C)(=O)=O | 7.12%
COc1ccc(C(=O)OCn2nnc3ccccc3c2=O)cc1 | -10.4%
CCNC(=O)c1sc(=S)n(-c2ccc(C)cc2)c1N | -2.32%
O=c1ccc(-c2ccc(S(=O)(=O)Nc3cccc(F)c3)o2)n[nH]1 | -2.54%
Cn1cc(CNC(=O)C2CCC(=O)N(Cc3ccccc3F)C2)cn1 (stereo not drawn) | 9.9%
O=C(NCCCCCCNC(=O)c1cccs1)c1cccs1 | 16.1%
COc1cc2c(cc1OC)CN(c1ncccc1[N+](=O)[O-])CC2 | -30.5%
CCOC(=O)C1(Cc2ccccc2C(F)(F)F)CCN(Cc2ccc(COC)o2)CC1 | -1.74%
O=C(COC(=O)CCN=C1NS(=O)(=O)c2ccccc21)NC1CCCCCCC1 | -7.06%
CC(C)c1nc2c(s1)CCc1onc(-c3cccc([N+](=O)[O-])c3)c1-2 | 16.4%
Cc1onc(-c2c(Cl)cccc2Cl)c1C(=O)O/N=C(\C#N)c1ccccc1 | 10.9%
Cn1c(/N=C/c2ccccc2[N+](=O)[O-])nc2ccccc21 | 8.71%
COC(=O)CSc1nc(-c2ccc(C)cc2)c2c(c1C#N)CCCC2 | 3.17%

SMILES | hERG current change (%, negative = inhibition) at 10uM
Cc1cc(NC(=O)COC(=O)C2CC(=O)N(c3cccc(Cl)c3)C2)no1 (stereo not drawn) | 14%
C/C(=N\NC(N)=S)c1ccc(-n2ccnc2)cc1 | -10.2%
CC(=O)NCCNC(=O)c1cc(-c2cccc3ccccc23)nc2ccccc12 | -7.57%
Cc1cc(S(=O)(=O)N2CCCCC2)ccc1OCC(=O)N1CCCC1 | -0.304%
N/C(=N\OC(=O)c1ccc2ccccc2c1)c1ccc(Br)cc1 | 1.79%
O=C(OCCN1C(=O)c2ccccc2C1=O)Oc1ccccc1 | -9.79%
Cn1cnc2c(=O)sc3ccccc3c21 | 5.9%
CC(C)Cn1c(SC(C)C(=O)NCC2CCCO2)nc2ccc(Cl)cc2c1=O (stereo not drawn) | 8.71%
CCC(=O)n1nc(-c2ccc(Cl)cc2)nc1NCc1ccccc1 | 4.15%
CC(=O)Nc1ccc(N2C(=O)CC(N3CCSCC3)C2=O)cc1 (stereo not drawn) | 5.45%
O=C(CCc1ccccc1)Nc1ccc(N2CCCCC2)cc1 | -1.58%
O=C(NCc1cccs1)C1CCN(S(=O)(=O)c2ccc(Br)s2)CC1 | -14.8%
CCC(CC)C(=O)c1c[nH]c(C(=O)NCCCN2CCOCC2)c1 | -5.06%
CC(=O)N1c2ccc(S(=O)(=O)N3CCCC(C(=O)N4CCCCC4)C3)cc2CC1C (stereo not drawn) | 19.2%
O=C(CNC(=O)C12CC3CC(CC(C3)C1)C2)NCc1ccccc1 | -3.32%
COc1cccc(CC2(CO)CCCN(Cc3ccc(C)s3)C2)c1 (stereo not drawn) | -50.5%
Cn1cc(C=O)c(-c2ccc3c(c2)OCCCO3)n1 | 13.3%
CN(C)c1ccc(N2C(=NC(=O)COc3ccccc3)SC3CS(=O)(=O)CC32)cc1 (stereo not drawn) | 23.7%
CCCCN(C(=O)Cc1ccc(S(=O)(=O)N2CCOCC2)s1)c1c(N)n(CCCC)c(=O)[nH]c1=O | 0.586%
COc1ccccc1-c1nc(SCC(=O)NCC2CCCO2)c2c(=O)n(C)c(=O)n(C)c2n1 (stereo not drawn) | 1.03%
COc1cc(/C=N\NC(=O)CC#N)ccc1OC/C=C/c1ccccc1 | 4.71%
O=C(CNC(=O)c1ccco1)OCc1ccc(C(=O)Oc2ccccc2)cc1 | -73.6%

SMILES | hERG current change (%, negative = inhibition) at 10uM
O=C(NNC(=O)c1ccccc1F)c1ccco1 | 16%
O=C(NCCCN1CCN(c2ccccc2F)CC1)C1CC(=O)N(C2CCCC2)C1 (stereo not drawn) | -9.49%
COc1nc(OC)nc(N2CCC(C(=O)NCc3ccc(F)cc3)CC2)n1 | -44.9%
Cc1ccc(C(=O)OCc2c(C)noc2C)cc1NC(=O)c1ccco1 | -16.6%
CCOC(=O)C1=C(C)NC(=O)NC1c1ccccc1OCc1c(F)cccc1Cl (stereo not drawn) | -12.7%
CCOc1ccc(C(C)C)cc1S(=O)(=O)N1CCN(C(=O)c2ccco2)CC1 | 3.94%
CC(C)CCNC(=O)C(c1cccnc1)N(Cc1ccccc1)C(=O)Cn1nnc2ccccc21 (stereo not drawn) | -18.6%
CC1CN(S(=O)(=O)c2cccc(C(=O)NNC(=O)C(C)Oc3ccccc3F)c2)CC(C)O1 (stereo not drawn) | -6.62%
Cc1nc(N2N=C(c3ccc(Cl)cc3)CC2c2ccco2)sc1C(=O)N(C)C (stereo not drawn) | -10.8%
Cc1cc([N+](=O)[O-])ccc1NCc1ccccc1 | -14.1%
CCCn1nc2cc(C(=O)NC3CCc4ccccc43)ccc2c1OCC (stereo not drawn) | 1.48%
O=S(=O)(c1ccc(S(=O)(=O)n2cnc3ccccc32)cc1)N1CCCCCC1 | 3.15%
CCOc1ncccc1C(=O)Nc1cc(S(=O)(=O)N2CCOCC2)ccc1N1CCCC1 | -24.3%
CCC(=O)c1c[nH]c(C(=O)NCc2ccco2)c1 | -8.24%
O=C(NCCCn1ccnc1)Nc1cccc(Cl)c1 | -3%
O=c1cc(-c2ccc(Cl)cc2)oc(=O)[nH]1 | 14.1%
Fc1cccc(C2CC(c3cccc(Br)c3)Nc3nnnn32)c1 (stereo not drawn) | -3.02%
O=C(Nc1nc2c(F)cc(F)cc2s1)C1CCN(C(=O)c2ccc(F)cc2)CC1 | 4.26%
COc1ccc(NC(=O)C(c2ccccc2)N2CCN(c3ccccn3)CC2)cc1Cl (stereo not drawn) | -20.9%
O=C1NC(c2ccc(-c3ccccc3[N+](=O)[O-])o2)C(C(=O)c2ccc(F)cc2)C(O)(C(F)(F)F)N1 (stereo not drawn) | 1.31%
O=C(OCC(=O)N1CCCCC1)c1c[nH]c(=O)[nH]c1=O | -6.27%
